Test results published in PMC4336329 (PLoS ONE, 2015).
Out of some 310,000 compounds screened, about 14,000 (4.5%) showed an effect of 50% or more. Effects have a minus sign here. The list shows a part of the results.
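Also: peak tail current of the secondary pulse compared with the same well before compound.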

Each compound was assayed against human ether-à-go-go-related gene (hERG) potassium channel (human, UniProt Q12809) (assay: primary screen, population patch clamp on CHO cells stably expressing hERG).
Chain of human ether-à-go-go-related gene (hERG) potassium channel (Q12809 whole entry, looked up): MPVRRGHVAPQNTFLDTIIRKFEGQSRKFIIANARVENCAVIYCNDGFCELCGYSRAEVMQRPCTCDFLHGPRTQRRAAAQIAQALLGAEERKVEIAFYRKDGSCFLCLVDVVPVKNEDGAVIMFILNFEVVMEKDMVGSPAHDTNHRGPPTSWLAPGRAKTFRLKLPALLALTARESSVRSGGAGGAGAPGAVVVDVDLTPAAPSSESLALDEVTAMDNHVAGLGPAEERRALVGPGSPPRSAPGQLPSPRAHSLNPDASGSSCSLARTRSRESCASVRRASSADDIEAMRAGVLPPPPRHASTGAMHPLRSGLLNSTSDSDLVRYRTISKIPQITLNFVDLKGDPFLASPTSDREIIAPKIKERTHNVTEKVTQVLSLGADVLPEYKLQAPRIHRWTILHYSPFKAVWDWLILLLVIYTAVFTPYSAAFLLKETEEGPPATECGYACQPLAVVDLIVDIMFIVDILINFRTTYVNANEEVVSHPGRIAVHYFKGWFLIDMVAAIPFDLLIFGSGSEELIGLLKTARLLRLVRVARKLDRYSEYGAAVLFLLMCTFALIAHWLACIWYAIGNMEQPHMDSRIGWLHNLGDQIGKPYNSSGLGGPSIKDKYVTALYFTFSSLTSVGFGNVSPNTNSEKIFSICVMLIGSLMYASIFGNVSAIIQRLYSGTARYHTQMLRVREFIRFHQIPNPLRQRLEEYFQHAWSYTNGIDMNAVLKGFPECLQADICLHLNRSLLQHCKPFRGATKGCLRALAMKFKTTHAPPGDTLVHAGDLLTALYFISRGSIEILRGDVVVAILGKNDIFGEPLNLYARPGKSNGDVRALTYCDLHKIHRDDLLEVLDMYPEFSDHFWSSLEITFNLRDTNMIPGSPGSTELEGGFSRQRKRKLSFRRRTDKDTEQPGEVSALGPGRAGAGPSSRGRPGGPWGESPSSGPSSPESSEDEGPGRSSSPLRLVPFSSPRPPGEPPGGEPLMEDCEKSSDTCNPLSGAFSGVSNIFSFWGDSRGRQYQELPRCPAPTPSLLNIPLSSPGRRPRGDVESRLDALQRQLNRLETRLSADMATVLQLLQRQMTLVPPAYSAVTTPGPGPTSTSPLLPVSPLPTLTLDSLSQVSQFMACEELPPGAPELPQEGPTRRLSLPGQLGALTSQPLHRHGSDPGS
`Cc1ccc2nc(C3CCCN(C(=S)Nc4ccccc4C)C3)[nH]c2c1` (stereo not drawn) was tested, and the “hERG current change (%, negative = inhibition) at 10uM” value was 16.2%.
With `COc1cccc(NC(=O)CC(=O)c2ccccc2)c1` the “hERG current change (%, negative = inhibition) at 10uM” value was 14%.
With `CC(C)(C)[C@H]1C=C(C(=O)NCc2nc3ccccc3[nH]2)O[C@@H](OCc2ccc(CO)cc2)C1` the “hERG current change (%, negative = inhibition) at 10uM” value was -18.7%.
For `CCOC(=O)c1cccc(NC(=O)CCS(=O)(=O)c2ccc(Br)s2)c1`, the “hERG current change (%, negative = inhibition) at 10uM” value was 18.7%.
`CN(CC(=O)Nc1ccc(OC(F)(F)F)cc1)C(=O)Cn1c(=O)cnc2ccccc21` was tested, and the “hERG current change (%, negative = inhibition) at 10uM” value was -30.9%.
For `COc1ccc(N(CC(=O)N2CCN(c3cccc(C)c3)C(C)C2)S(=O)(=O)c2c(C)n[nH]c2C)cc1` (stereo not drawn), the “hERG current change (%, negative = inhibition) at 10uM” value was -16.8%.
In the case of `NC(=O)CC(NC(=O)Cc1cccc2ccccc12)c1ccc(NCCCN2CCCC2=O)c([N+](=O)[O-])c1` (stereo not drawn), the “hERG current change (%, negative = inhibition) at 10uM” value is reported as 10.1%.
For `COc1ccc(S(=O)(=O)Cc2ccc(C(=O)NC3CCC(C)CC3)o2)cc1` (stereo not drawn), the “hERG current change (%, negative = inhibition) at 10uM” value was -15.8%.
With `CCO[C@@H]1OC(C(=O)O)=C[C@H](C2CC2)[C@H]1CCCO` the “hERG current change (%, negative = inhibition) at 10uM” value was 7.6%.
`O=C(CN1CCN(c2ccccn2)CC1)NC(=O)NC1CCCCC1` was tested, and the “hERG current change (%, negative = inhibition) at 10uM” value was 1.52%.
In the case of `O=C(/C=C/c1nc2ccccc2s1)N1CCCCCC1`, the “hERG current change (%, negative = inhibition) at 10uM” value is reported as -0.709%.
`CC(C)N(C(=O)CN1CCN(C(=O)C2COc3ccccc3O2)CC1)C(C)C` (stereo not drawn) was tested, and the “hERG current change (%, negative = inhibition) at 10uM” value was -0.817%.
With `CNC(=O)COc1coc(CN2CCN(c3ccc(OC)cc3)CC2)cc1=O` the “hERG current change (%, negative = inhibition) at 10uM” value was 1.11%.
In the case of `Cn1c(=NC(=O)C2CCN(S(=O)(=O)c3cccs3)CC2)sc2ccccc21`, the “hERG current change (%, negative = inhibition) at 10uM” value is reported as 9.35%.
`NC(=O)c1cc(S(=O)(=O)N2CCCCC2)cs1` was tested, and the “hERG current change (%, negative = inhibition) at 10uM” value was 30%.
For `O=C1NCCN1C(=O)c1ccccc1F`, the “hERG current change (%, negative = inhibition) at 10uM” value was 8.05%.
In the case of `CC(=O)Nc1ccc(C2(c3ccc(NC(C)=O)cc3)NC(=O)c3ccccc32)cc1`, the “hERG current change (%, negative = inhibition) at 10uM” value is reported as 4.99%.
In the case of `O=C(Nc1c(C(=O)N2CCOCC2)oc2ccccc12)c1ccccc1Cl`, the “hERG current change (%, negative = inhibition) at 10uM” value is reported as 0.111%.
In the case of `CCc1ccccc1NC(=O)CNC(=O)c1ccc(-n2cncn2)c([N+](=O)[O-])c1`, the “hERG current change (%, negative = inhibition) at 10uM” value is reported as -4.79%.
For `COCCCNC(=O)CNC(=S)N(Cc1cc(OC)c(OC)c(OC)c1)C1CCCC1`, the “hERG current change (%, negative = inhibition) at 10uM” value was -3.15%.
With `O=C(Nc1ccc(COc2ccccc2)cc1)c1cccc([N+](=O)[O-])c1` the “hERG current change (%, negative = inhibition) at 10uM” value was 21%.
For `Cn1c(CNC(=O)c2ccco2)nnc1SCC(=O)N1CCN(c2ccccc2F)CC1`, the “hERG current change (%, negative = inhibition) at 10uM” value was 14.5%.
`CC1Oc2ccccc2N(CC(=O)NCCc2ccccc2)C1=O` (stereo not drawn) was tested, and the “hERG current change (%, negative = inhibition) at 10uM” value was -6.26%.
`O=C(COC(=O)/C=C/c1ccc(C(F)(F)F)cc1)NC(=O)NCc1ccco1` was tested, and the “hERG current change (%, negative = inhibition) at 10uM” value was -0.129%.
`O=C1CC(c2ccccc2)CC(=O)N1c1ccc(C(F)(F)F)cc1` was tested, and the “hERG current change (%, negative = inhibition) at 10uM” value was 9.01%.
In the case of `Cc1cc(C(F)(F)F)nn1CC(=O)NNC(=S)Nc1ccc(Cl)cc1`, the “hERG current change (%, negative = inhibition) at 10uM” value is reported as 27%.
For `CC1=C(C(=O)OCc2ccccc2)C(c2ccccc2[N+](=O)[O-])NC(=O)N1C` (stereo not drawn), the “hERG current change (%, negative = inhibition) at 10uM” value was 1.71%.
`CC1CCN(S(=O)(=O)c2ccc(NC(=O)CNC3CCCCC3)cc2)CC1` was tested, and the “hERG current change (%, negative = inhibition) at 10uM” value was 12.7%.
`Cc1cc2oc(=O)cc(CN(C)Cc3ccccc3Cl)c2cc1C` was tested, and the “hERG current change (%, negative = inhibition) at 10uM” value was 2.5%.
With `O=C(O)c1c2c(nc3ccccc13)/C(=C/c1ccc(O)cc1)CC2` the “hERG current change (%, negative = inhibition) at 10uM” value was 28.5%.
In the case of `CC1(C)C(=O)Nc2ccccc2N1C(=O)CN1C(=O)NC(CCc2ccccc2)C1=O` (stereo not drawn), the “hERG current change (%, negative = inhibition) at 10uM” value is reported as 1.21%.
`CCCCCCCCCc1nc2sc3c(c2c(=O)n1NC(=O)c1ccccc1[N+](=O)[O-])CC(C)(C)OC3` was tested, and the “hERG current change (%, negative = inhibition) at 10uM” value was -10.8%.
`Cc1cccc2c(N=NC(=O)c3ccc(NS(=O)(=O)c4cccs4)cc3)c(O)[nH]c12` was tested, and the “hERG current change (%, negative = inhibition) at 10uM” value was -1.32%.
With `CCC(C)c1ccc(NC(=O)c2ccco2)cc1` (stereo not drawn) the “hERG current change (%, negative = inhibition) at 10uM” value was -1.15%.
`c1ccc(CSc2ccc(-c3cccnc3)nn2)nc1` was tested, and the “hERG current change (%, negative = inhibition) at 10uM” value was 6.82%.
In the case of `COCCNS(=O)(=O)c1cc(C)c(C)cc1C`, the “hERG current change (%, negative = inhibition) at 10uM” value is reported as 0.879%.
For `CCc1ccccc1NC(=O)CCC(=O)c1cccs1`, the “hERG current change (%, negative = inhibition) at 10uM” value was 17.7%.
For `Cc1nc(NC(=O)c2cnccn2)ccc1Br`, the “hERG current change (%, negative = inhibition) at 10uM” value was 9.16%.
`CNCC(=O)Nc1ccc(Cl)c(C(F)(F)F)c1` was tested, and the “hERG current change (%, negative = inhibition) at 10uM” value was 17.6%.
With `C/C(=N\NC(=O)c1ccccc1)c1ccc(N2CCCCC2)cc1` the “hERG current change (%, negative = inhibition) at 10uM” value was -6.48%.
`Cc1[nH]c(=S)[nH]c(=O)c1CCCO` was tested, and the “hERG current change (%, negative = inhibition) at 10uM” value was 12.6%.
For `COC(=O)C1=C(C)NC2=C(C(=O)c3ccccc32)C1c1cccc(OC)c1` (stereo not drawn), the “hERG current change (%, negative = inhibition) at 10uM” value was 4.97%.
In the case of `CC1=Nc2cc(C(=O)N3CCC4(CC3)OCCO4)ccc2Sc2ccc(Cl)cc21`, the “hERG current change (%, negative = inhibition) at 10uM” value is reported as -2.21%.
With `Cc1ccc(-c2csc(NC3OC(=O)c4ccccc43)n2)cc1` (stereo not drawn) the “hERG current change (%, negative = inhibition) at 10uM” value was 7.48%.
In the case of `O=C(OC1CCOC1=O)c1ccccc1C(=O)c1ccc(Cl)c([N+](=O)[O-])c1` (stereo not drawn), the “hERG current change (%, negative = inhibition) at 10uM” value is reported as 4.8%.
